# In the supplement of paper PMC8728848:
# Some of the results follow.
# B1: Gal 8 (Homo sapiens), O00214 (protein)
# chain: MMLSLNNLQNIIYNPVIPFVGTIPDQLDPGTLIVIRGHVPSDADRFQVDLQNGSSMKPRADVAFHFNPRFKRAGCIVCNTLINEKWGREEITYDTPFKREKSFEIVIMVKDKFQVAVNGKHTLLYGHRIGPEKIDTLGIYGKVNIHSIGFSFSSDLQSTQASSLELTEISRENVPKSGTPQLPSNRGGDISKIAPRTVYTKSKDSTVNHTLTCTKIPPMNYVSKRLPFAARLNTPMGPGRTVVVKGEVNANAKSFNVDLLAGKSKDIALHLNPRLNIKAFVRNSFLQESWGEEERNITSFPFSPGMYFEMIIYCDVREFKVAVNGVHSLEYKHRFKELSSIDTLEINGDIHLLEVRSW
# What was measured:
# Assay in all cases: glycan array binding signal (z-score within array); higher = stronger binding
# Settings in all cases: glycan notation: IUPAC condensed, linker removed
# Fuc(a1-2)Gal = target: Fuc(a1-2)Gal
# Method in brief: (§1)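 Glycan array data came from 3228 arrays in the Consortium for Functional Glycomics database, and only arrays with an available protein sequence were kept. Glycan names were put into IUPAC-condensed notation, and columns mapping to the same glycan were averaged. The binding signal is a within-array Z-score, averaged across arrays of one protein sequence run at different concentrations or buffers and across linkers. A negative Z-score can be read as non-binding.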
# Fuc(a1-2)Gal(b1-3)GalNAc = target: Fuc(a1-2)Gal(b1-3)GalNAc
# Method in brief: as §1
# [1] = target: Fuc(a1-2)Gal(b1-3)GalNAc(b1-3)Gal
# Method in brief: as §1
# [2] = target: Fuc(a1-2)Gal(b1-3)GalNAc(b1-3)Gal(a1-4)Gal(b1-4)Glc
# Method in brief: as §1
# [3] = target: Fuc(a1-2)Gal(b1-3)GalNAc(b1-4)[Neu5Ac(a2-3)]Gal(b1-4)Glc
# Method in brief: as §1
# Fuc(a1-2)Gal(b1-3)GlcNAc = target: Fuc(a1-2)Gal(b1-3)GlcNAc
# Method in brief: as §1
# [4] = target: Fuc(a1-2)Gal(b1-3)GlcNAc(b1-3)Gal(b1-4)Glc
# Method in brief: as §1
# [5] = target: Fuc(a1-2)Gal(b1-3)[Fuc(a1-4)]GlcNAc
# Method in brief: as §1
# Fuc(a1-2)Gal(b1-4)Glc = target: Fuc(a1-2)Gal(b1-4)Glc
# Method in brief: as §1
# Fuc(a1-2)Gal(b1-4)Glc6S = target: Fuc(a1-2)Gal(b1-4)Glc6S
# Method in brief: as §1
# Fuc(a1-2)Gal(b1-4)GlcNAc = target: Fuc(a1-2)Gal(b1-4)GlcNAc
# Method in brief: as §1
# [6] = target: Fuc(a1-2)Gal(b1-4)GlcNAc(b1-3)Gal(b1-4)GlcNAc
# Method in brief: as §1
# [7] = target: Fuc(a1-2)Gal(b1-4)GlcNAc(b1-3)Gal(b1-4)GlcNAc(b1-3)Gal(b1-4)GlcNAc
# Method in brief: as §1
# [8] = target: Fuc(a1-2)Gal(b1-4)GlcNAc6S
# Method in brief: as §1
# [9] = target: Fuc(a1-2)Gal(b1-4)[Fuc(a1-3)]GlcNAc
# Method in brief: as §1
# [10] = target: Fuc(a1-2)Gal(b1-4)[Fuc(a1-3)]GlcNAc(b1-3)Gal(b1-4)[Fuc(a1-3)]GlcNAc
# Method in brief: as §1
# [11] = target: Fuc(a1-2)Gal(b1-4)[Fuc(a1-3)]GlcNAc(b1-3)Gal(b1-4)[Fuc(a1-3)]GlcNAc(b1-3)Gal(b1-4)[Fuc(a1-3)]GlcNAc
# Method in brief: as §1
# Fuc(a1-2)Gal6S(b1-4)Glc = target: Fuc(a1-2)Gal6S(b1-4)Glc
# Method in brief: as §1
# [12] = target: Fuc(a1-2)Gal6S(b1-4)Glc6S
# Method in brief: as §1
# [13] = target: Fuc(a1-2)Gal6S(b1-4)GlcNAc
# Method in brief: as §1
# Fuc(a1-2)[Gal(a1-3)]Gal = target: Fuc(a1-2)[Gal(a1-3)]Gal
# Method in brief: as §1
# [14] = target: Fuc(a1-2)[Gal(a1-3)]Gal(b1-3)GlcNAc
# Method in brief: as §1
# [15] = target: Fuc(a1-2)[Gal(a1-3)]Gal(b1-4)Glc
# Method in brief: as §1
# [16] = target: Fuc(a1-2)[Gal(a1-3)]Gal(b1-4)GlcNAc
# Method in brief: as §1
# [17] = target: Fuc(a1-2)[Gal(a1-3)]Gal(b1-4)[Fuc(a1-3)]GlcNAc
# Method in brief: as §1
# [18] = target: Fuc(a1-2)[Gal(a1-4)]Gal(b1-4)GlcNAc
# Method in brief: as §1
# [19] = target: Fuc(a1-2)[GalNAc(a1-3)]Gal
# Method in brief: as §1
# [20] = target: Fuc(a1-2)[GalNAc(a1-3)]Gal(b1-3)GlcNAc
# Method in brief: as §1
# [21] = target: Fuc(a1-2)[GalNAc(a1-3)]Gal(b1-4)Glc
# Method in brief: as §1
# [22] = target: Fuc(a1-2)[GalNAc(a1-3)]Gal(b1-4)GlcNAc
# Method in brief: as §1
# [23] = target: Fuc(a1-2)[GalNAc(a1-3)]Gal(b1-4)[Fuc(a1-3)]GlcNAc
# Method in brief: as §1
# [24] = target: Fuc(a1-2)[GalNAc(a1-4)]Gal(b1-4)GlcNAc
# Method in brief: as §1
# [25] = target: Fuc(a1-2)[GalNAc(b1-3)]Gal
# Method in brief: as §1
# Fuc(a1-3)GlcNAc = target: Fuc(a1-3)GlcNAc
# Method in brief: as §1
# [26] = target: Fuc(a1-3)[Gal(b1-4)]Glc6S
# Method in brief: as §1
# [27] = target: Fuc(a1-3)[Gal(b1-4)]GlcNAc
# Method in brief: as §1
# [28] = target: Fuc(a1-3)[Gal(b1-4)]GlcNAc(b1-2)Man(a1-3)[Fuc(a1-3)[Gal(b1-4)]GlcNAc(b1-2)Man(a1-6)]Man(b1-4)GlcNAc(b1-4)GlcNAc
# Method in brief: as §1
# [29] = target: Fuc(a1-3)[Gal(b1-4)]GlcNAc(b1-2)Man(a1-6)[Gal(b1-4)GlcNAc(b1-2)Man(a1-3)]Man(b1-4)GlcNAc(b1-4)GlcNAc
# Method in brief: as §1
# [30] = target: Fuc(a1-3)[Gal(b1-4)]GlcNAc(b1-3)Gal(b1-3)[Fuc(a1-4)]GlcNAc
# Method in brief: as §1
# [31] = target: Fuc(a1-3)[Gal(b1-4)]GlcNAc(b1-4)Gal(b1-4)[Fuc(a1-3)]GlcNAc
# Method in brief: as §1
# [32] = target: Fuc(a1-3)[Gal(b1-4)]GlcNAc(b1-4)Gal(b1-4)[Fuc(a1-3)]GlcNAc(b1-4)Gal(b1-4)[Fuc(a1-3)]GlcNAc
# Method in brief: as §1
# [33] = target: Fuc(a1-3)[Gal(b1-4)]GlcNAc6S
# Method in brief: as §1
# [34] = target: Fuc(a1-3)[Gal3S(b1-4)]Glc6S
# Method in brief: as §1
# [35] = target: Fuc(a1-3)[Gal3S(b1-4)]GlcNAc
# Method in brief: as §1
# [36] = target: Fuc(a1-3)[Gal3S(b1-4)]GlcNAc6S
# Method in brief: as §1
# [37] = target: Fuc(a1-3)[GalNAc(b1-4)]GlcNAc
# Method in brief: as §1
# Fuc(a1-4)GlcNAc = target: Fuc(a1-4)GlcNAc
# Method in brief: as §1
# Fuc(b1-3)GlcNAc = target: Fuc(b1-3)GlcNAc
# Method in brief: as §1
# Gal(a1-2)Gal = target: Gal(a1-2)Gal
# Method in brief: as §1
# Gal(a1-3)Gal = target: Gal(a1-3)Gal
# Method in brief: as §1
# Gal(a1-3)Gal(b1-3)GlcNAc = target: Gal(a1-3)Gal(b1-3)GlcNAc
# Method in brief: as §1
# Gal(a1-3)Gal(b1-4)Glc = target: Gal(a1-3)Gal(b1-4)Glc
# Method in brief: as §1
# Gal(a1-3)Gal(b1-4)GlcNAc = target: Gal(a1-3)Gal(b1-4)GlcNAc
# Method in brief: as §1
# [38] = target: Gal(a1-3)Gal(b1-4)[Fuc(a1-3)]GlcNAc
# Method in brief: as §1
# Gal(a1-3)GalNAc = target: Gal(a1-3)GalNAc
# Method in brief: as §1
# [39] = target: Gal(a1-3)[Gal(a1-4)]Gal(b1-4)GlcNAc
# Method in brief: as §1
# Gal(a1-4)Gal(b1-4)Glc = target: Gal(a1-4)Gal(b1-4)Glc
# Method in brief: as §1
# Gal(a1-4)Gal(b1-4)GlcNAc = target: Gal(a1-4)Gal(b1-4)GlcNAc
# Method in brief: as §1
# Gal(a1-4)GlcNAc = target: Gal(a1-4)GlcNAc
# Method in brief: as §1
# Gal(a1-6)Glc = target: Gal(a1-6)Glc
# Method in brief: as §1
binder,measurement,setting,value
B1,glycan array binding signal (z-score),Fuc(a1-2)Gal,-0.412
same,glycan array binding signal (z-score),Fuc(a1-2)Gal(b1-3)GalNAc,0.128
same,glycan array binding signal (z-score),[1],-0.432
same,glycan array binding signal (z-score),[2],-0.141
same,glycan array binding signal (z-score),[3],-0.168
same,glycan array binding signal (z-score),Fuc(a1-2)Gal(b1-3)GlcNAc,1.36
same,glycan array binding signal (z-score),[4],1.29
same,glycan array binding signal (z-score),[5],-0.434
same,glycan array binding signal (z-score),Fuc(a1-2)Gal(b1-4)Glc,0.114
same,glycan array binding signal (z-score),Fuc(a1-2)Gal(b1-4)Glc6S,0.286
same,glycan array binding signal (z-score),Fuc(a1-2)Gal(b1-4)GlcNAc,-0.016
same,glycan array binding signal (z-score),[6],1.13
same,glycan array binding signal (z-score),[7],1.22
same,glycan array binding signal (z-score),[8],0.154
same,glycan array binding signal (z-score),[9],-0.408
same,glycan array binding signal (z-score),[10],-0.431
same,glycan array binding signal (z-score),[11],-0.386
same,glycan array binding signal (z-score),Fuc(a1-2)Gal6S(b1-4)Glc,-0.427
same,glycan array binding signal (z-score),[12],-0.451
same,glycan array binding signal (z-score),[13],-0.438
same,glycan array binding signal (z-score),Fuc(a1-2)[Gal(a1-3)]Gal,-0.409
same,glycan array binding signal (z-score),[14],3.58
same,glycan array binding signal (z-score),[15],5.02
same,glycan array binding signal (z-score),[16],4.8
same,glycan array binding signal (z-score),[17],-0.447
same,glycan array binding signal (z-score),[18],-0.452
same,glycan array binding signal (z-score),[19],-0.428
same,glycan array binding signal (z-score),[20],1.9
same,glycan array binding signal (z-score),[21],4.22
same,glycan array binding signal (z-score),[22],2.24
same,glycan array binding signal (z-score),[23],-0.41
same,glycan array binding signal (z-score),[24],-0.412
same,glycan array binding signal (z-score),[25],0.118
same,glycan array binding signal (z-score),Fuc(a1-3)GlcNAc,-0.382
same,glycan array binding signal (z-score),[26],-0.374
same,glycan array binding signal (z-score),[27],-0.437
same,glycan array binding signal (z-score),[28],-0.433
same,glycan array binding signal (z-score),[29],-0.195
same,glycan array binding signal (z-score),[30],-0.442
same,glycan array binding signal (z-score),[31],-0.416
same,glycan array binding signal (z-score),[32],-0.006
same,glycan array binding signal (z-score),[33],-0.432
same,glycan array binding signal (z-score),[34],-0.295
same,glycan array binding signal (z-score),[35],-0.441
same,glycan array binding signal (z-score),[36],-0.23
same,glycan array binding signal (z-score),[37],-0.438
same,glycan array binding signal (z-score),Fuc(a1-4)GlcNAc,-0.4
same,glycan array binding signal (z-score),Fuc(b1-3)GlcNAc,-0.433
same,glycan array binding signal (z-score),Gal(a1-2)Gal,0.812
same,glycan array binding signal (z-score),Gal(a1-3)Gal,-0.43
same,glycan array binding signal (z-score),Gal(a1-3)Gal(b1-3)GlcNAc,1.33
same,glycan array binding signal (z-score),Gal(a1-3)Gal(b1-4)Glc,1.17
same,glycan array binding signal (z-score),Gal(a1-3)Gal(b1-4)GlcNAc,0.236
same,glycan array binding signal (z-score),[38],-0.439
same,glycan array binding signal (z-score),Gal(a1-3)GalNAc,-0.426
same,glycan array binding signal (z-score),[39],-0.445
same,glycan array binding signal (z-score),Gal(a1-4)Gal(b1-4)Glc,-0.426
same,glycan array binding signal (z-score),Gal(a1-4)Gal(b1-4)GlcNAc,-0.422
same,glycan array binding signal (z-score),Gal(a1-4)GlcNAc,-0.44
same,glycan array binding signal (z-score),Gal(a1-6)Glc,-0.443
